39 variants from the RNAGym collection of RNA variant scans (doi:10.7554/elife.90254) can be followed below.

The source gives no read counts; variants with many changes may rest on few reads.

The chains are these.
B1: LINE1-full (parent)
chain: UACGUAGGUGGUUUUCCCCUGAUAGUGCUAAGGGGGCCUGGAAGUUUGGACUGGGCAGAGCUCAACACAGCGUGGCAAAGUGGCUGUGGCUAGACUGCCUCUCUGGAUUCCUCGUCACUCAGCAGGGCAUCUCUGAGAGAAAUGCC

The variants in the data set derive from B1. The data set can be described thus: self-cleavage, relative activity (ratio to wild type); higher = more cleavage; in vitro, sequencing; the parent is a self-cleaving ribozyme.
Regarding UACGUAGGUGGUUCUCCCCCGAUAGUGCUAAGGGGGCCUGGAAGUUUGGACUGGGCAGAGCUCAACACAGCGUGGCAAAGUGGCUGUGGCUAGACUGCCUCUCUGGAUUCCUCGUCACUCAGCAGGGCAUCUCUGAGAGAAGUGCC, the self-cleavage was determined as 1.74.

Regarding UACGUAGGUGGUUCUCCCCUGAUAGUGCUAAGGGGGCCUGAAAGUUUGGACUGGGCAGAGCUCAACACAGCGUGGCAAAGUGGCUGUGGCUAGACUGCCUCUCUGGAUUCCUCGUCACUCGGCAGGGCAUCUCUGAGAGAGAUGCC, the self-cleavage was found to be 1.27.

With UACGUAGGUGGUUCUCCCCUGACAGUGCUAAAGGGGCCUGGAAGUUUGGACUGGGCAGAGCUCAACACAGCGUGGCAAAGUGGCUGUGGCUAGACUGCCUCUCUGGAUUCCUCGUCACUCAGCAGGGCAUCCCUGUGAGAAAUGCC, the self-cleavage was 0.45.

As for UACGUAGGUGGUUCUCCCCCGUUAGUGCUAAGGGGGCCUGGAAGUUUGGACUGGGCAGAGCUCAACACAGCGUGGCAGAGUGGCUGUGGCUAGACUGCCUCUCUGGAUUCCUCAUCACUCAGCAGGGCAUCUCUGAGAGAAAUGCC, the self-cleavage was found to be 1.23.

As to UACGUAGGUGGUUCACCCCUGAUAGUGCUAAGGGGGCCUGGAAGUUUGGACUGGGCAAAGCUCAACACAGCGUGGCAAAGUGGCUGAGGCUAGGCUGCCUCUCUGGAUUCCUCGUCCCUCAGCAGGGCAUCUCUGAGAGAAAUGCC, the self-cleavage amounted to 0.45.

For the variant UACGUAGGUGGUUCUCCCCUGAUAGUGCUAAGGGGGCCUGGAAGUUUGGACUGGGCAGAGCUCAACACAGCAUGGCAAAGUGGCUGUGGCUAGACUGCCUCUCUGGAUUCCUCGUCACUCAGCAGGGCAACUCUGAGAGAAAUGCC, the self-cleavage is 1.46.

As for UACGUAGGUGGUUCACCCCUGAUAGUGCUAAGGGGGCCUGGAGGUUUGGACUGGGCAGAGCUCAACACAGCGUGGCAAAGUGGCUGUGGCUAGACAGCCUCUCUGGAUUCCUCGUCACUCAGCAGGGCAUCUCUGAGAGAAAUGCC, the self-cleavage is 0.

Take UACGUAGGUGGUUCCCCCCUGAUAGCGCUAAGGGGGCCUGGAAGUUUGGACUGGGCAGAGCUCAACACAGCGUGGCAAAAUGGCUGUGGCUAGACUGCUCCUCUGGAUUCCUCGUCACUCAGCAGGGCAUCUCUGAGAGAAAUGCC: the self-cleavage was determined as 1.02.

Consider UACGUAGGUGGUUCUCCCCUGAAAGUGCUAAGGGGGCCUGGAAGUUUGGACUGGGCAGAGCUCAACACAGCGUGGCAAAGUGACUGUGGCUGGACUGCCUCUCUGGAUUCCUCGUCACUCAGCAGGGCAUCUCUGAGAGAAAUGCC, for which the self-cleavage is 0.15.

Consider UACGUAGGUGGUUCUCCCCUGAUAGUGCUAAGGGGACCUGGAAGUUUGGACUGGGCAGAGCUCAACACAGCGUGGCAAAGUGGCUGUGGCUAGACUGCCACUCUGGAUUCCUCCUCACUCAGCAGGGCAUCUCUGAGAGAAAUGCC, for which the self-cleavage turned out to be 0.44.

On to UACGUAGGUGGUUCUCCCCAGAUAGUGCUAAGGGGGCCUGGAAGUUUGGACUGGGCAGAGCUCAACACUGCGUGGCAAAGUGGCUGUGGCUAGACUGCCUCUCUGGAUUCCUCGUCACUCAGCAGGGCAUCUCUGAGAGAAAUGCC, for which the self-cleavage was found to be 0.11.

As to UACGUAGGUGGUUCUCCCCUGAUAGUGCUAAGGGGGCCUGGAAGUUUGGACUGGACAGAGCUCAACACAGCGUGGCAAAGUGACUGUGGCUAGACUGCCUCUCUGGAUUCCUCGUCACUCAGCAGGGCAUCUCUGAGAGAAGAGCC, the self-cleavage is 0.06.

On to UACGUAGGUGGUUCUCCCCAGAUAGUGCUAAGGGGGCCUGGAAGUUGGGACUGGGCAGAGCUCAACACAGCGUGGCAAAGUGGCUGUGGCUAGACUGCCUCUCUGGAUUCCUCGUCACUCAGCAGGGCAUCUCUGAGAGAAAUGCC, for which the self-cleavage was 1.

In the case of UACGUAGGUGGUUCUCCCCUGACAGUGCUAAGGGGGCCUGGAAGUUUGGACUGGGCAGAGCUCGACACAGCGUGGCAAAGUGGCUGUGGCUAGACUGCCUCUCUGGAUUCCUCGUCACUCAGCAGGGCAUCUCUGAGAGAAAUGCC, the self-cleavage is 0.69.

As for UACGUAGGUGGUUCUCCCCCGAUAGUGCUAAGGGGGCCUGGAAGUUUGGACUGGGCAGAGCUCAACACGGCGUGGCGAAGUGGCUGUGGCUAGACUGCCUCUCUGGAUUCCUCGUCACUCAGCAGGGCAUCUCUGAGAGAAAUGCC, the self-cleavage was determined as 0.61.

With UACGUAGGUGGUUCUCCCCUGAUAGUGCUAAGGGGGCCUGGAAGUUUGGACUGGGCAGAGCUCAACACAGCGUGGCAAAGUAGCUGUGGCUAGACUGCCUCUCAGUAUUCCUCGUCACUCAGCAGGGCAUCUCUGAGAGAAAUGCC, the self-cleavage was 1.62.

For UACGUAGGUGGUUCUCCCCUGAUAGUGCUAAGGGCGCCUGGAAGUCUGGACUGGGCAGAGCUCAACACAGCGUGGCAAAGUGGCUGUGGCUAGACUGCCUCUCUGGAUUCCUCGUCACUCAGCAGGGCAUCUCUGAGAGAAAUGCC, the self-cleavage is 0.78.

Take UACGUAGGUGGUUCUCCCCCGAUAGUGCUAAGGGGGCCUGGAAGUUUGGACUGGGCAGAGCUCAACACAGUGUGGCAAAGUGGCUGUGGCUAGACCGCCUCUCUGGAUUCCUCGUCACUCAGCAGGGCAUCUCUGAGAGAAAUGCC: the self-cleavage is 0.

Consider UACGUAGGUGGUUCUCCCCUGAUAGUGCUAAGGGGUCCUGGAAGUUUGGACCGGGCAGAGCCCAACACAGCGUGGCAAAGUGGCUGUGGCUAGACUGCCUCUCUGGAUUCCUCGUCACUCAGCAGGGCAUCUCUGAGAGAAAUGCC, for which the self-cleavage worked out at 0.25.

For the variant UACGUAGGUGGUUCCCCCCUGAUAGUGCUAAGGGGGCCUGGAAGUUUGGACUGGGCAGAGCUCAACACAACGUGGCAAAGUGGCUGUGGCUAGACUGCCUCUCUGGAUUCCUCGUCACUCAGCAGGGCAUCUCUGAGAGAAAUGCC, the self-cleavage was determined as 0.29.

As to UACGUAGGUGGUUCCCCCCUGAUAGUACUAAGGGGGCCUGGAAGUUUGGACUGGGCAGAGCUCAACACAGCGUGGCCAAGUGGCUGUGGCUAGACUGCCUCUCUGGAUUCCUCGUCACUCAGCAGGGCAUCUCUGAGAGAAAAGCC, the self-cleavage was 0.73.

Regarding UACGUAGGUGGUUCUCCCCCGAUAGUGCUAAGGGGGCCUGGAUGUUUGGACUGGGCAGAGCUCAACACAGCGUGGCAAAGUGGCUGUGGCUAGACUGCCUCUCUGGAUUCCUCGUCACUCAGCAGGGCAUCUCUGAGAGAAAUGCC, the self-cleavage is 1.31.

For UACGUAGGUGGUUCUCCCCUGACAGUGCUAAGGGGGCCUGGAAGUUUGGGCUGGGCAGAGCUCAACACAGCGUGGCGAAGUGGCUGUGGCUAGACUGCCUCUCUGGAUUCCUCGUCACUCAACAGGGCAUCUCUGUGAGAAAUGCC, the self-cleavage is 2.01.

For the variant UACGUAGGUGGUUCCCCCCUGAUAGUGCUAAGGGGGCCUGGAAGUUUGGACUGGGCUGAGCUCAACACAGCGUGGCAAAGUGGCUGUGGCUAGACUGCCUCUCUGGAUUCCUCGUCACUCAGCAGGGCAUCUCUGAGAGGAAUGCC, the self-cleavage amounted to 0.23.

Regarding UACGUAGGUGGUUCUCCCCUGAUAGUGCUAAGGGGACCUGGAAGUUUGGACUGGGCAGAGCUCAACACAGCGUGGCAAAGUGGCUGUGGCUAGACUGCCUCUCUGGAUUCCUCGUCACUCAGCAGGGCAUCUCUGAGAGAAACGCC, the self-cleavage stood at 1.3.

UACGUAGGUGGUUCUCCCCAGAUAGUGCUAAGGGGGCCUGGAAGUUUGGACUGGGCAGAGCUCAACACAGCGUGGCAAAGUGGCCGUGGCUAGACUGCCUCUCUGGAUUCCUCGUCACUCAGCAGGGCAUCUCUGAGAGAGAUGCC: the self-cleavage came out at 0.34.

In the case of UACGUAGGUGGUUCUCCCCUGAUAGUGCUAAGGGGGCCUGGAAGUUUGGACUGGGCAGAGCUCAACACAGCGUAGCAAAGUGGCUGUGGCUAGACUGCCUCUCUGGAUUCCUCGUCGCUCAGCAGGGCAUCUCUGAGAGAAAUGCC, the self-cleavage was determined as 0.9.

On to UACGUAGGUGGUUCUCCCCUGAUAGUGCUAAGGGUGCCUGGAAGUUUGGACUGGGCAGAGCUCAACACAGCGUGGCAAAGUGGCUGUGGCUAGACUGCCUCUCUGGAUUCCUCGUCACUCAGCAGGGCAUCUCUGAGGGAAAUGCC, for which the self-cleavage was 1.05.

Turning to UACGUAGGUGGUUCUCCCCUGAAAGUGCUAAGGGGGCCUGGAAGCUUGGACUGGGCAGAGCUCAACACAGCGUGGCAAAGUGGCUGUGGCUAGACUGCCUCUCUGGAUUCCUCGUCACUCAGCAGGGCAUCUCUGAGAGAAAUGCC, the self-cleavage amounted to 1.89.

Take UACGUAGGUGGUUCCCCCCUGAUAGUGCUAAGGGGGCCUGGAAGUUUGGACUGGGCAGAGCUCAACACAGCGUGGCAAAGUGGCUGUGGCUAGACUGCCUCUCUGGAUUCCUCGUCACUCAGCAGGGCACCUCUGAGAGAAAUGCC: the self-cleavage worked out at 0.6.

Turning to UACGUAGGUGGUUCUCCCCCGAUAGUGCUAAGGGGGCCUGGAAGUUUGGACUGGGCAGAGCUCAACACAGCGUGGCAAAGUGGCGGUGGCUAGACUGCCUCUCUGGAUUCCUCGUCACUCAGCAGGGCAUCUCUGAGAGAAAUGCC, the self-cleavage came to 0.08.

For the variant UACGUAGGUGGUUCCCCCUUGAUAGUGCUAAGGGGGCCUGGAAGUUUGGACUGGGCAGAGCUCAACACAGCGUGGCAAAGUGGCUGUGGCUAGACUGCCUCUCAGGAUUCCUCGUCACUCAGCAGGGCAUCUCUGAGAGAAAUGCC, the self-cleavage worked out at 1.19.

On to UACGUAGGUGGUUCUCCCCAGAUAGUGCUAAGGGGGCCUGGAAGUUUGGACUGGGCAGAGCUCAACACAGCGUGGCAAGGUGGCUGUGGCUAGACUGCCUCUCUGGAUUCCUCGUCACUCAGCAGGGCAUCUCGGAGAGAAAUGCC, for which the self-cleavage turned out to be 0.61.

Regarding UACGUAGGUGGUUCUCCCCUGAUAGUGCUAAGGGGGCCUGGAAGUUUGGACUGGGCAGAACUCAACACAGCGAGGCAAAGUGGCUGUGGCUAGACUGCCUCUCUGGAUUCCUCGUCACUCAGCAGGGCAUCUCUGAGAGAAAUGCC, the self-cleavage came out at 0.08.

Regarding UACGUAGGUGGUUCCCCCCUGAUAGUGCUAAGGGGGCCUGGAAGUUUGGACUGGGCAGAGCUCAACACAGCGUGGCAAAGUGGCUGUGGCUAGACUGCCUCUCUGGAUUCCUCGUCACUCAGCAGGGCAUCUCUGAGAGAGAUGCC, the self-cleavage was 1.61.

In the case of UACGUAGGUGGUUCUCCCCUGAUAGUGCUAAGGGGGCCUGGAAGUUUGGACUGGGCAGAGCUCAACACAGCAUGGCAAAGUGGCUGUGGCUAGACUGCCUCUCUGGAUUCCUCGUCGCUCAGCAGGGCAUCUCUGAGAGAGAUGCC, the self-cleavage was determined as 1.18.

In the case of UACGUAGGUGGUUCUCCCCCGAUAGUGCUAAGGGGGCCUGGAAGUUUGGACUGGGCAGAGCUCAACUCAGCGUGGCAAAGUGGCUGUGGCUAGACUGCCUCUCUGGAUUCCUCGUCACUCAGCAGGGCAUCUCUGAGAGAAAUGCC, the self-cleavage was determined as 0.3.

On to UACGUAGGUGGUUCACCCCUGAUAGUGCUAAGGGGGCCUGGGAGUUUGGACUGGGCAGAGCUCAACACAGCGUGGCAAAGUAGCUGUGGCUAGACUGCCUCUCUGGAUUCCUCGUCACUCAGCAGGGCAUCUCUGAGAGAAAUGCC, for which the self-cleavage turned out to be 1.13.

Turning to UACGUAGGUGGUUCUCCCCUGAUAGUGCUAAGGGGGCCUGGAAGUUUGUACUGGGCAGAGCUCAACACAGCGUGGCAAAGUGGCUGUGGCUAGACUGCCUCUCUGGAUCCCCCGUCACUCAGCAGGGCAUCUCUGAGAGAAAUGCC, the self-cleavage came to 2.3.
